Laboratory results from PubChem BioAssay AID1671193 (National Center for Advancing Translational Sciences (NCATS), 2021).
About 180 (0.12%) of roughly 150,000 compounds were called active. Inconclusive results, whose numbers are uncertain, are shown with a selection of clear calls. The call rests on the fitted dose curve; in most records, active means well fitted cell-killing curve with a large enough effect; inconclusive means small, poorly fitted or top-dose-only effect, or effect the other way; inactive means flat fitted curve, though single readings scatter. Potencies of inconclusive entries are doubtful fits and often do not repeat.

experiment: GF-AFC viability counterscreen for inhibitors of alpha-synuclein gene (SNCA) expression; conditions: HEK-293-SNCA-luc viability, GF-AFC fluorescence, 24 h; activity change, negative = cytotoxicity: at 57.1 µM (top of the series) unless noted; further: nearly all actives have a fitted effect of over 30% in size;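 on activity change, negative = cytotoxicity: 0% = DMSO-treated cells and -100% = medium-only wells without cells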
How it was run: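 HEK-293-SNCA-luc cells (1500/well) plated 24 h, then exposed 24 h to a dilution series; GF-AFC added 30 min at 37C, fluorescence 405/540 nm; normalised to medium-only and DMSO wells, Hill fit.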
Potency means the concentration at half of the fitted maximal effect; tags describe the fitted curve by direction and shape.

| Compound | Potency | activity change, negative = cytotoxicity |
| --- | --- | --- |
| Cc1ccccc1-c1cncnc1NCc1cccnc1 | inconclusive: 28.2 µM [cytotoxic, single point] | – |
| Cc1noc2c(NCCCn3ccnc3)cc(-c3ccccc3)nc12 | inconclusive: 31.6 µM [cytotoxic, partial curve, poor fit] | – |
| c1cnn(-c2ccc(-c3nc(C4CCOC4)no3)cc2)c1 (stereo unspecified) | inconclusive: 4.47 µM [rising, single point] | – |
| O=C(NC1CC1)c1ccc(Cn2c(SCc3ccccc3F)nc3cccnc32)cc1 | inconclusive: 39.8 µM [cytotoxic, single point] | – |
| Cc1ccc(C(=O)NC2CCN(c3cn[nH]c(=O)c3)CC2)cc1F | inconclusive: 25.1 µM [cytotoxic, partial curve, poor fit] | – |
| CC1(c2ccccc2)N(Cc2ccccc2C#N)C(=O)OC12CCN(c1ccncc1)CC2 (stereo unspecified) | inconclusive: 2.82 µM [cytotoxic, full curve] | – |
| COC(=O)N1CCC2(CCN(Cc3cc(C(F)(F)F)cc(C(F)(F)F)c3)CC2)CC1 | inconclusive: 35.5 µM [cytotoxic, partial curve, poor fit] | – |
| COc1ccc(C(=O)N[C@@H]2CCC[C@@H]2C(=O)NCCc2ccccc2)cn1 | inconclusive: 15.8 µM [cytotoxic, partial curve, poor fit] | – |
| CCCCN(CC)CCCNC(=O)C1CCN(c2nc3ccc(CC)cc3s2)CC1 | inconclusive: 39.8 µM [cytotoxic, single point] | – |
| COc1cccc(C(=O)Nc2cccc(-c3nnc4n3CCCC4)c2)c1 | inconclusive: 39.8 µM [cytotoxic, single point] | – |
| COc1ccc(-c2nc(C)c(CCNC(=O)c3cc(OC)c(OC)c(OC)c3)s2)cc1OC | inconclusive: 15.8 µM [cytotoxic, partial curve] | – |
| O=c1c(-c2cccs2)nc2cnc(N3CCNCC3)nc2n1C1CC1 | inconclusive: 25.1 µM [rising, partial curve] | – |
| COc1ccccc1CNC(=O)[C@H]1CCC[C@H]1NC(=O)c1ccncc1 | inconclusive: 2.82 µM [cytotoxic, partial curve, poor fit] | – |
| Cc1ccc([S+](=O)([O-])N2CCc3nc(C(C)C)nc(-c4ccc(O)cc4)c3C2)cc1 | inconclusive: 31.6 µM [cytotoxic, partial curve, poor fit] | – |
| COc1ccc(N(C(=O)c2ccc(C(C)(C)C)cc2)S(=O)(=O)c2ccc(Cl)cc2)cc1 | inconclusive: 44.7 µM [cytotoxic, single point] | – |
| COCC(=O)NC/C=C/c1ccc2ncnc(Nc3ccc(Oc4ccc(C)nc4)c(C)c3)c2c1 | inconclusive: 37.7 µM [cytotoxic, partial curve, poor fit] | – |
| O=C(NC1CCCCCC1)c1nc2sccn2c1-c1cccnc1 | – | inactive: -15.7% |
| CCc1ccccc1-n1c(N)c(C(=O)OC)c2nc3ccccc3nc21 | inconclusive: 17.8 µM [rising, partial curve, poor fit] | – |
| O=C(CN1C(=O)NC2(CCOCC2)C1=O)Nc1ccc2c(c1)OCCO2 | inconclusive: 3.55 µM [rising, single point] | – |
| CCOc1ccc(-n2nc3ccc(NC(=O)Cc4ccccc4)cc3n2)cc1 | active: 28.2 µM | – |
| Cn1ccc(NC(=O)[C@@H]2C[C@@H](c3ccc(F)cc3)N(CCOc3ccccc3)C2)n1 | – | inactive: -4.98% [at 87.6 µM] |

| Compound | Potency | activity change, negative = cytotoxicity |
| --- | --- | --- |
| CCn1ccc(C(=O)N2CCc3nc(NC)nc(C(=O)N4CCCC4)c3C2)n1 | – | inactive: -5.26% |
| O=C(N[C@@H]1CN(Cc2cc(F)cc(F)c2)C[C@H]1CO)c1ccccc1 | inconclusive: 3.16 µM [cytotoxic, full curve, poor fit] | – |
| Cc1ccc(Nc2ccnc(N3CCC(C(=O)N4CCCCC4)CC3)n2)cc1 | – | inactive: -5.09% [at 12.5 µM] |
| COc1ccc(Oc2cc(C)c(-c3csc(NC(=O)c4ccncc4)n3)c(C)c2)cc1 | inconclusive: 13.4 µM [cytotoxic, partial curve, poor fit] | – |
| COc1ccc(NC(=O)C2CC(=O)N(c3n[nH]c4cccc(F)c34)C2)cc1 (stereo unspecified) | – | inactive: 2.11% |
| CN(c1ccccc1)c1ccc2nnc(-c3cc(C(=O)NCCc4ccccc4)ccn3)n2n1 | – | inactive: -9.24% |
| CN(C)c1ncc2nc(-c3cc(F)cc(F)c3)c(=O)n(Cc3cccs3)c2n1 | inconclusive: 39.8 µM [rising, single point] | – |
| CN(C)C/C=C/C(=O)Nc1cccc(C(=O)Nc2cccc(Nc3ncc(Cl)c(-c4c[nH]c5ccccc45)n3)c2)c1 | inconclusive: 1.89 µM [cytotoxic, full curve] | – |
| COc1ccccc1N1CCN(c2ccc(NC(=O)c3ccc(C)cc3)cc2C(=O)O)CC1 | inconclusive: 0.794 µM [rising, full curve, poor fit] | – |
| CCNc1ncc2nc(-c3cn(C)c4ccccc34)c(=O)n(CCC#N)c2n1 | inconclusive: 14.1 µM [rising, partial curve, poor fit] | – |
| COc1ccc(C2Cn3cnc(C(=O)N4CCC(C(=O)NCc5ccccc5F)CC4)c3CO2)cc1 (stereo unspecified) | inconclusive: 28.2 µM [cytotoxic, partial curve, poor fit] | – |
| Cc1ccc(NC(=O)N2CCCCCCN(C)C(=O)CC2)cc1C | inconclusive: 6.31 µM [cytotoxic, single point] | – |
| COc1ccc(-c2noc([C@@H]3Cc4nc[nH]c4CN3Cc3ccc(C)cc3)n2)cc1 | inconclusive: 35.5 µM [cytotoxic, partial curve, poor fit] | – |
| CN1CCN(c2ncc3nc(-c4cn(C)c5ccccc45)c(=O)n(CCC#N)c3n2)CC1 | inconclusive: 17.8 µM [rising, partial curve, poor fit] | – |
| COc1ccc(C2(C(=O)N3CCC(Cc4nc(-c5ccccc5)n[nH]4)C3)CC2)cc1 (stereo unspecified) | inconclusive: 31.6 µM [cytotoxic, single point] | – |
| CN(C)c1ncc2nc(-c3ccc(F)cc3)c(=O)n(CCC#N)c2n1 | inconclusive: 7.08 µM [rising, single point] | – |
| OCC1(Cc2ccccc2Cl)CCN(Cc2cc3ccccc3o2)CC1 | inconclusive: 8.91 µM [cytotoxic, single point] | – |
| Cc1ccc(S(=O)(=O)N(CC(O)Cn2c3ccccc3c3ccccc32)c2cccc(C(=O)NCCO)c2)cc1 (stereo unspecified) | inconclusive: 39.8 µM [cytotoxic, single point] | – |
| COc1ccc(-c2cc(N3CCCC(NC(=O)c4ccccc4)C3)n[nH]2)cc1 (stereo unspecified) | inconclusive: 22.4 µM [cytotoxic, partial curve, poor fit] | – |
| COC(=O)c1ccc2c(=O)n(CCCCCC(=O)N3CCN(c4cccc(C)c4C)CC3)c(=O)[nH]c2c1 | inconclusive: 22.4 µM [cytotoxic, single point] | – |
| CCOc1cc(CNc2ccc(O)cc2)cc(Cl)c1OCc1ccccc1 | inconclusive: 31.6 µM [cytotoxic, partial curve, poor fit] | – |

| Compound | Potency | activity change, negative = cytotoxicity |
| --- | --- | --- |
| CC(C)NC[C@@H](C(=O)N1CCN(c2ncnc3c2[C@H](C)C[C@H]3O)CC1)c1ccc(Cl)cc1 | inconclusive: 3.41 µM [cytotoxic, full curve] | – |
| COc1ccc(CN2Cc3cc(NC(=O)c4ccccc4F)ccc3OC(C)C2=O)c(OC)c1 (stereo unspecified) | – | inactive: -0.264% |
| O=C(c1cnc[nH]1)N1C[C@@H](COc2cccnc2)[C@H](c2ccccn2)C1 | inconclusive: 7.94 µM [cytotoxic, single point] | – |
| CC(C)(C)CN1CCOC[C@H]1c1ncc(-c2ccc(F)cc2F)[nH]1 | inconclusive: 56.2 µM [cytotoxic, single point] | – |
| COc1cccc(Cn2c(=O)c(-c3cccs3)nc3cnc(N(C)C)nc32)c1 | inconclusive: 20 µM [rising, partial curve] | – |
| NC(Cc1ccccc1)C(=O)N1CCN(c2ccccn2)CC1 (stereo unspecified) | – | inactive: -26% |
| COc1ccc(CCNC(=O)C2c3ccccc3C(=O)N2Cc2ccccc2)cc1OC (stereo unspecified) | inconclusive: 14.1 µM [cytotoxic, partial curve, poor fit] | – |
| COc1ccc(C(=O)N[C@@H]2CN(Cc3ccccc3)C[C@H]2CN(C)C)cc1 | – | inactive: -8.22% |
| COCCn1c(=N)c(C(=O)NC2CCCC2)cc2c(=O)n3cc(C)ccc3nc21 | inconclusive: 20 µM [rising, partial curve, poor fit] | – |
| COc1cccc(-c2cc(C3CCN(C(=O)Nc4cccc(SC)c4)CC3)[nH]n2)c1 | inconclusive: 39.8 µM [cytotoxic, single point] | – |
| COc1ccc(-c2c(C(=O)NC3CCCCC3)nc3sccn23)cc1 | – | inactive: -9.18% |
| CCOC(=O)c1c(C)oc2ccc(N(C(C)=O)S(=O)(=O)c3c(C)cc(C)cc3C)cc12 | inconclusive: 39.8 µM [rising, single point] | – |
| Cc1cc(NC(=O)CN2C(=O)NC(c3ccccc3Cl)C3=C2COC3=O)ccc1Br (stereo unspecified) | inconclusive: 25.1 µM [cytotoxic, partial curve, poor fit] | – |
| O=C(NCc1cccc(F)c1)c1ccc2nccn2c1 | – | inactive: -0.448% [at 87.6 µM] |
| O=C(Nc1cccc(Cl)c1)c1cnc2c(c1)N(Cc1ccccc1)CCC2 | inconclusive: 25.1 µM [cytotoxic, partial curve, poor fit] | – |
| Cc1ccc(-c2cnc([C@@H]3COCCN3Cc3ccncc3)[nH]2)cc1 | – | inactive: 0.711% [at 87.6 µM] |
| CCOC(=O)c1cc2c(=O)n3ccccc3nc2n(Cc2ccco2)c1=NC(=O)c1cc(C)cc(C)c1 | inconclusive: 25.1 µM [rising, partial curve, poor fit] | – |
| N#Cc1ccc(CN2CC(Oc3ccc(F)c(F)c3)C2)cc1 | – | inactive: 6.43% [at 87.6 µM] |
| COc1cccc(N2C(=O)CSC23C(=O)N(CC(=O)Nc2cc(C)ccc2C)c2ccccc23)c1 (stereo unspecified) | inconclusive: 22.4 µM [cytotoxic, partial curve, poor fit] | – |
